Reference: the supplement of paper PMC12355420
Counter-ions that a name gives are not always drawn. This is one part of the list. No stated cut-off is given here; in the data, active = 0.5 or less and inactive = the rest. Most values come without repeats; read them as rough.

Experiments:
Conditions in all cases: 50 µM; 24 h
[1] = test system: HeLa VPS33A reporter cells; experiment: relative cell viability (CellMask signal) vs DMSO (fraction of DMSO); higher = less cytotoxic;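 further: primary screen of an FDA-approved drug library in HeLa reporter cells in 96-well format, CellMask signal normalized to DMSO-treated wells set as 1, under 0.5 deemed highly cytotoxic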
[2] = test system: HeLa VPS33A R498W KI + HA-SDC1-FLAG; experiment: relative GAG core protein HA-SDC1 amount per cell number vs DMSO (fraction of DMSO); higher = more SDC1 (GAG core protein);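 further: HA-SDC1 level read out by In-Cell Western staining with an anti-HA antibody against the N-terminal tag, screening FDA-approved library drugs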
[3] = test system: HeLa VPS33A KO + NLuc-VPS33A R498W; experiment: relative mutant VPS33A R498W amount (NanoLuc luminescence) vs DMSO (fraction of DMSO); HeLa model of a glycosaminoglycan (GAG) storage disease; KI is knock-in and KO knock-out; SDC1 is syndecan 1; higher = higher mutant VPS33A level;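 further: screen of an FDA-approved drug library, NanoLuc luminescence read after lysing the treated cells, taken as a measure of mutant VPS33A protein stability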

Structure (SMILES)	relative cell viability [1]	relative GAG core protein HA-SDC1 amount per cell number [2]	relative mutant VPS33A R498W amount [3]
NC(=O)c1ncn([C@@H]2O[C@H](CO)[C@@H](O)[C@H]2O)n1 [Ribavirin]	0.99	inactive: 0.86	1.92
CCC(C)n1ncn(-c2ccc(N3CCN(c4ccc(OCC5COC(Cn6cncn6)(c6ccc(Cl)cc6Cl)O5)cc4)CC3)cc2)c1=O (stereo not given) [Itraconazole]	1.11	inactive: 1.09	1.51
O=C(c1ccc(F)cc1)C1CCN(CCn2c(=O)[nH]c3ccccc3c2=O)CC1 [Ketanserin]	1.07	inactive: 0.924	1.2
CN1CCC[C@H]1c1cccnc1 [Nicotine]	0.948	inactive: 0.854	1.18
COc1ccc([C@H]2CNC(=O)C2)cc1OC1CCCC1 [S- (+)-Rolipram]	0.976	inactive: 0.916	0.93
O=C1OCCN1/N=C/c1ccc([N+](=O)[O-])o1 [Furazolidone]	1.01	inactive: 0.524	1.2
Clc1ccc2nsnc2c1NC1=NCCN1 [Tizanidine HCl]	1.26	inactive: 0.82	0.589
N[C@@H]1CCCCN(c2c(F)cc3c(=O)c(C(=O)O)cn(C4CC4)c3c2Cl)C1 [Besifloxacin HCl]	0.969	inactive: 0.948	0.558
NCCCC[C@H](N[C@@H](CCc1ccccc1)C(=O)O)C(=O)N1CCC[C@H]1C(=O)O [Lisinopril dihydrate]	1.08	inactive: 0.964	1.25
Cc1nc(=O)c2cc(CN(C)c3ccc(C(=O)N[C@@H](CCC(=O)O)C(=O)O)s3)ccc2[nH]1 [Raltitrexed]	1.12	inactive: 1.07	1.18
CC(C(=O)O)c1cccc(Oc2ccccc2)c1 (stereo not given) [Fenoprofen calcium hydrate]	1.29	inactive: 0.687	0.58
O=C(O)c1cc(=O)c2ccccc2o1 [Chromocarb]	1.02	inactive: 1	1.21
NC(CO)(CO)CO [Trometamol]	1.14	inactive: 0.856	1.02
COC(=O)/C=C/C(=O)OC [Dimethyl Fumarate]	0.96	active: 0.359	3.5
O=c1c(O)c(-c2ccc(O)c(O)c2)oc2cc(O)cc(O)c12 [Quercetin]	0.857	inactive: 0.856	0.435
NC[C@H](O)c1ccc(O)c(O)c1 [Noradrenaline bitartrate monohydrate]	0.934	inactive: 1.11	1.36
CC1(C)S[C@@H]2[C@H](NC(=O)C(C(=O)O)c3ccccc3)C(=O)N2[C@H]1C(=O)O (stereo not given in full) [Carbenicillin, Disodium Salt]	1.38	inactive: 1.27	0.996
CCN[C@@H]1C[C@H](N)[C@@H](O[C@H]2OC(CN)=CC[C@H]2N)[C@H](O)[C@H]1O[C@H]1OC[C@](C)(O)[C@H](NC)[C@H]1O [Netilmicin Sulfate]	0.89	inactive: 1.03	0.696
CCOC(=O)[C@H](C)C[C@@H](Cc1ccc(-c2ccccc2)cc1)NC(=O)CCC(=O)O [AHU-377(Sacubitril)]	1.34	inactive: 0.87	0.692
C[C@]12C=CC(=O)C=C1CC[C@H]1[C@@H]3C[C@@H](O)[C@](O)(C(=O)CO)[C@@]3(C)C[C@H](O)[C@@]12F [Triamcinolone]	1.07	inactive: 1.01	1.08
CCNC(=O)CC[C@H](N)C(=O)O [L-Theanine]	0.928	inactive: 0.864	1.02
O=C(CCCCCCNC(=O)c1cnc(N(c2ccccc2)c2ccccc2)nc1)NO [Rocilinostat (ACY-1215)]	0.926	inactive: 0.765	4.45
C[C@H](CCC(=O)O)[C@H]1CC[C@H]2[C@@H]3[C@H](O)C[C@@H]4C[C@H](O)CC[C@]4(C)[C@H]3C[C@H](O)[C@]12C [Cholic acid]	1.02	inactive: 0.818	1.3
Clc1ccc2nsnc2c1NC1=NCCN1 [Tizanidine]	1.36	inactive: 0.855	0.582
C[C@]12CCC(=O)C=C1CC[C@@H]1[C@@H]2[C@@H](O)C[C@@]2(C)[C@H]1CC[C@]2(O)C(=O)CO [Hydrocortisone]	0.997	inactive: 1.03	0.825
CCOc1nc2cccc(C(=O)O)c2n1Cc1ccc(-c2ccccc2-c2nnn[nH]2)cc1 [Candesartan]	1.08	inactive: 0.885	1.23
N=C(N)c1ccc(N=NNc2ccc(C(=N)N)cc2)cc1 [Diminazene Aceturate]	1.06	inactive: 0.55	0.66
OC[C@H]1O[C@@H](O[C@@H]2[C@@H](CO)OC(O)(CO)[C@H]2O)[C@H](O)[C@@H](O)[C@H]1O (mixture of isomers) [Lactulose]	0.903	inactive: 0.726	1.28

Structure (SMILES)	relative cell viability [1]	relative GAG core protein HA-SDC1 amount per cell number [2]	relative mutant VPS33A R498W amount [3]
CC(O)c1cc(C(=O)N[C@@H](C)Cn2ccc(-c3ccc(C#N)c(Cl)c3)n2)n[nH]1 (stereo not given in full)	1.01	active: 0.495	0.46
C/C1=C2N=C(/C=C3N=C(/C(C)=C4\[N-]C(C(CC(N)=O)C4(C)CCC(=O)NCC(C)OP(=O)([O-])OC4C(CO)OC(n5cnc6cc(C)c(C)cc65)C4O)C4(C)N=C1C(CCC(N)=O)C4(C)CC(N)=O)C(CCC(N)=O)C\3(C)C)C(CCC(N)=O)C/2(C)CC(N)=O.[CH3-].[Co+3] (stereo not given) [Methylcobalamin]	1.01	inactive: 0.789	1.24
COC(=O)C1=C(C)NC(C)=C(C(=O)OCCN2CCN(C(c3ccccc3)c3ccccc3)CC2)C1c1cccc([N+](=O)[O-])c1 (stereo not given) [Manidipine 2HCl]	0.983	active: 0.282	0.815
Nc1ccn([C@@H]2O[C@H](CO)[C@@H](O)[C@@H]2O)c(=O)n1 [Cytarabine hydrochloride]	1.24	inactive: 0.694	0.56
CC(=O)Nc1ncc([N+](=O)[O-])s1 [Nithiamide]	0.927	inactive: 0.906	1.24
Cc1[nH]c(/C=C2\C(=O)Nc3ccccc32)c(C)c1CCC(=O)O [TSU-68 (SU6668,Orantinib)]	0.949	inactive: 0.706	0.602
NCC(=O)O [Glycine]	1.02	inactive: 1.01	1.05
CCOC(=O)c1ccc(OC(=O)CCCCCNC(=N)N)cc1 [Gabexate mesylate]	1.18	inactive: 0.944	0.914
CCN1CCN(c2cc3c(cc2F)c(=O)c(C(=O)O)cn3C2CC2)CC1 [Enrofloxacin]	1.1	inactive: 0.802	0.883
C[C@@H](O)[C@H]1C(=O)N2C(C(=O)O)=C(SCCNC=N)C[C@H]12 [Imipenem (hydrate)]	1.1	inactive: 0.755	1.03
C#C[C@]1(OC(C)=O)CC[C@H]2[C@@H]3CCC4=C[C@@H](OC(C)=O)CC[C@@H]4[C@H]3CC[C@@]21C [Ethynodiol diacetate]	1.34	active: 0.254	0.771
CC(=O)OCC[N+](C)(C)C [Acetylcholine Chloride]	0.994	inactive: 1.44	1.19
Cc1c(OCC(F)(F)F)ccnc1C[S+]([O-])c1nc2ccccc2[nH]1 (stereo not given) [Lansoprazole sodium]	1.42	inactive: 0.712	0.571
COC(=O)[C@H]1[C@H]2C[C@@H]3c4[nH]c5cc(OC)ccc5c4CCN3C[C@H]2C[C@@H](OC(=O)c2cc(OC)c(OC)c(OC)c2)[C@@H]1OC [Reserpine]	1.14	inactive: 3.38	0.325
O=C(O)Cc1ccccc1Nc1c(Cl)cccc1Cl [Diclofenac Potassium]	0.986	inactive: 0.584	0.725
CC(C)[C@@H]1CC[C@@H](C)C[C@H]1O [L-Menthol]	1.02	inactive: 0.836	1.06
COc1ccccc1OCC(O)CN1CCN(CC(=O)Nc2c(C)cccc2C)CC1 (stereo not given) [Ranolazine 2HCl]	1	inactive: 1.36	1.21
CC(=O)N(c1onc(C)c1C)S(=O)(=O)c1ccc(N)cc1 [Sulfisoxazole Acetyl]	1.02	active: 0.462	0.774
CN(C)c1ccc(O)c2c1C[C@H]1C[C@H]3[C@H](N(C)C)C(=O)C(C(N)=O)=C(O)[C@@]3(O)C(=O)C1=C2O [Minocycline HCl]	0.611	inactive: 1.02	0.228
CCCSc1nc(N[C@@H]2C[C@H]2c2ccc(F)c(F)c2)c2nnn([C@@H]3C[C@H](OCCO)[C@@H](O)[C@H]3O)c2n1 [Ticagrelor]	0.947	inactive: 0.783	1.21
OC[C@H]1O[C@@H](OCCc2ccc(O)cc2)[C@H](O)[C@@H](O)[C@@H]1O [Salidroside]	1.06	inactive: 0.98	1.27
CCc1cc2c(cc1N1CCC(N3CCOCC3)CC1)C(C)(C)c1[nH]c3cc(C#N)ccc3c1C2=O	1.56	inactive: 2.05	0.809
N=C(N)N [Guanidine HCl]	0.916	inactive: 1.15	0.953
C=C[C@H]1CN2CC[C@H]1C[C@@H]2[C@@H](O)c1ccnc2ccc(OC)cc12 [Quinidine]	1.04	inactive: 0.855	1.37
CNC(=O)c1cnn(-c2nc(N)c3ncn([C@@H]4O[C@H](CO)[C@@H](O)[C@H]4O)c3n2)c1 [Regadenoson]	1.13	inactive: 0.909	1.08
NC(=O)c1cnccn1 [Pyrazinamide]	0.978	inactive: 0.916	1.67
[I-].[K+] [Potassium Iodide]	0.959	inactive: 0.868	1.32
